According to the supplement of paper PMC10338343:
± gives the standard deviation. Only a part is listed here, and it is no random draw.

Test system: MIWI (PIWIL1) piRISC loaded with L1MC piRNA (30 nt)
Test: pre-steady-state target cleavage rate (min^-1); MIWI and MILI are mouse PIWI proteins and EfPiwi is from a freshwater sponge; tags in brackets are library labels; higher = faster piRNA-guided slicing of the target
Conditions: guide: L1MC piRNA 5'p-UAACUAAAUACUAUGCAAGCUGUAGGUCCU; auxiliary factor: 500 nM mouse GTSF1
Method: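 Cleave-'n-Seq: a library of target RNAs (target site embedded in constant flanks, ACAGCATTCCGCGTTAGTGATATCCG... 5' flank; DNA-blocked outside the site) at 0.1 nM was incubated with 1 nM active mouse MILI or MIWI piRISC (synthetic 5'-monophosphorylated piRNA guide) with or without 500 nM mouse GTSF1 at 33 °C for 1 min to 16 h. Uncleaved targets were sequenced and normalised to non-target controls, and the pooled three trials were fitted to a burst-and-steady-state model to give the pre-steady-state cleavage rate (min^-1; k3 is constrained to at most 1e-4). Sequence is the target site only; target names encode pairing extent (gX:gY) and contiguous / 1-mismatch / 2-mismatch / bulge geometry. Fits with R² ≤ 0 are excluded.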

Sequence	pre-steady-state target cleavage rate
UCCUGGUACAGCUUGCAUAGUUAAUAGUUA	0.0509 ± 0.015
AGGACCUUGAGCUUGCAUAGUAUUUUCAAA	0.0368 ± 0.01
UCCUGGAUGAGCUUGCAUAGUAAUUUGUUA	0.184 ± 0.042
AGGACGUACAGCUUGCAUAGUAUUUACUUA	0.241 ± 0.037
UCCACCUACAGCUAGCUUAGUAUUUAGUUA	0.749 ± 0.035
UCCUGCUACAGCUUGCAUAGUAUUUAGUUG [g2:g25:cont:t1G]	0.229 ± 0.019
UGGACCUACUGCUUGCAUAGUAUUUAGAUA	0.256 ± 0.021
UCCUGCAACUGCUUGCAUAGUAUUUAGUUA	1.24 ± 0.072
UCCUGGUACAGCUAGCUUAGUAUUUAGUUA	0.689 ± 0.045
UCCUGCUACAGCUUGCUUUGUAUUUAGUUA	0.242 ± 0.022
UGGUCCUACAGCUUGCAUAGUAUUUAGAAA	0.396 ± 0.041
UGGACCUACAGCUUGCAUAGUAUAAAGUUA	0.519 ± 0.043
UGGACCUUCAGCUUGCAUAGUAUAUAGUUA	1 ± 0.053
ACGACCUACAGCAUGCAUAGUAUUUAGUUA	1.43 ± 0.053
UCCUGGUACAGCUUGCAUAGAAUUUACUUA	0.0682 ± 0.02
UCCUGGAUGUGCUUGCAUAGUAAAUAGUUA	0.00946 ± 0.0041
UCCUCCUACAGCUUGCAUAGAUAUUUAGUUA	0.0587 ± 0.024
AGGACCUACAGCUUGCAUAGUAUUUCGUUA	0.68 ± 0.071
UCCUGGAACAGCUUGAAUAGUAUUUAGUUA	0.89 ± 0.047
UCGACGUACAGCUAGCAUAGUAUUUAGUUA	1.23 ± 0.056
AGGACGUACAGCUUGCAUAGUAUUAAGUUA	0.713 ± 0.089

Same assay, conditions: guide: L1MC piRNA 5'p-UAACUAAAUACUAUGCAAGCUGUAGGUCCU; auxiliary factor: none (no GTSF1)

Sequence	pre-steady-state target cleavage rate
UCCUGGUACAGCUUGCAUAGUUAAUAGUUA	0.00882 ± 0.0026
UCCUGGAUGAGCUUGCAUAGUAAUUUGUUA	0.0103 ± 0.0031
AGGACGUACAGCUUGCAUAGUAUUUACUUA	0.0278 ± 0.0051
UCCACCUACAGCUAGCUUAGUAUUUAGUUA	0.00804 ± 0.0022
UCCUGCUACAGCUUGCAUAGUAUUUAGUUG [g2:g25:cont:t1G]	0.0367 ± 0.0072
UGGACCUACUGCUUGCAUAGUAUUUAGAUA	0.018 ± 0.0023
UCCUGCAACUGCUUGCAUAGUAUUUAGUUA	0.0336 ± 0.0092
UCCUGGUACAGCUAGCUUAGUAUUUAGUUA	0.0121 ± 0.0033
UCCUGCUACAGCUUGCUUUGUAUUUAGUUA	0.00838 ± 0.0019
UGGUCCUACAGCUUGCAUAGUAUUUAGAAA	0.0162 ± 0.0043
UGGACCUACAGCUUGCAUAGUAUAAAGUUA	0.0182 ± 0.0049
UGGACCUUCAGCUUGCAUAGUAUAUAGUUA	0.0376 ± 0.0085
ACGACCUACAGCAUGCAUAGUAUUUAGUUA	0.082 ± 0.021
UCCUGGUACAGCUUGCAUAGAAUUUACUUA	0.00381 ± 0.0032
UCCUGGAUGUGCUUGCAUAGUAAAUAGUUA	0.00369 ± 0.0032
AGGACCUACAGCUUGCAUAGUAUUUCGUUA	0.0542 ± 0.011
UCCUGGAACAGCUUGAAUAGUAUUUAGUUA	0.0292 ± 0.006
UCGACGUACAGCUAGCAUAGUAUUUAGUUA	0.0266 ± 0.0062
AGGACGUACAGCUUGCAUAGUAUUAAGUUA	0.0343 ± 0.007
